# Reference: ChEMBL document CHEMBL1201862, “PubChem BioAssay data set” (2004)
# System: NCI-H322M
# Test: inhibition of tumour cell growth, NCI panel, 48 h
row,SMILES,GI50
1,CC(/C=C/C(=O)NO)=C\C(C)C(=O)c1ccc(N(C)C)cc1 (centres undefined),active: 0.0441 µM
2,CCOC(=O)c1cnc2[nH]c(=O)c3ccccc3n2c1=O,inactive: > 100 µM
3,Cc1cc2c(cc1-c1cc3c(cc1C)C(C(C)C)=C(O)C(=O)/C3=C\Nc1cccc3c(N)cccc13)/C(=C/Nc1cccc3c(N)cccc13)C(=O)C(O)=C2C(C)C,inactive: > 100 µM
4,Cn1ccnc1Cn1cc(-c2cccc(-c3cn[nH]c3)c2)cn1,inactive: > 100 µM
5,O=P(O)(O)OC1O[C@H](CO)[C@H](O)[C@H](O)[C@H]1O (some centres undefined),inactive: > 100 µM
6,CCC12CC[C@H](C#N)N3CCc4c(n(c5ccccc45)C(=O)C1)C32 (some centres undefined),inactive: 17.8 µM
7,N#C/C(=C(/S)Nc1ccccc1)c1nc2ccccc2[nH]1,inactive: > 10 µM
8,c1ccc2c(c1)Nc1ccccc1[P+]21c2ccccc2Nc2ccccc21,active: 0.383 µM
9,Cc1ccccc1/N=N/c1c(O)ccc2ccccc12,inactive: > 100 µM
10,CS/C(=N/C(=O)c1ccccc1)SCCS/C(=N\C(=O)c1ccccc1)SC,inactive: > 100 µM
11,CC(C)COC(=O)OC(=O)c1ccc(N(C)Cc2cnc3nc(N)nc(N)c3n2)cc1,inactive: 51.9 µM
12,COC(=O)[C@H](Cc1ccccc1)NP(=O)(O)OCC1OC(n2cc(C)c(=O)[nH]c2=O)CC1N=[N+]=[N-] (some centres undefined),inactive: > 100 µM
13,O=[N+]([O-])c1cccc(C2N3CCCCC3[C@@H]3c4[nH]c5ccccc5c4CCN23)c1 (some centres undefined),inactive: 17.5 µM
14,Clc1ccccc1C1N2CCCCC2[C@@H]2c3[nH]c4ccccc4c3CCN12 (some centres undefined),inactive: 16.7 µM
15,O=c1cc(-c2ccccc2)c2cc3c(=O)ccoc3cc2o1,inactive: > 100 µM
16,O=C(O)Cc1cc(Cl)ccc1O,inactive: > 100 µM
17,c1ccc(N2CCN(CCCN3CCc4c([nH]c5ccccc45)C3c3cccnc3)CC2)cc1 (centres undefined),inactive: 75.3 µM
18,COc1ccc(-n2sc3ncc(C)cc3c2=O)cc1,inactive: > 100 µM
19,NS(=O)(=O)c1ccc(NC2=CC(=O)C(=O)c3ccccc32)cc1,inactive: > 100 µM
20,C[C@]12CCC[C@H](Cl)C1(O)C[C@H](C(=O)O)CC2 (some centres undefined),inactive: > 100 µM
21,COc1cc(S(=O)(=O)Nc2ccc(-c3csc(N4C(=O)C(C)SC4c4cccs4)n3)cc2)ccc1Cl (centres undefined),inactive: > 100 µM
22,Cc1cn(C2CC(N)C(CN)O2)c(=O)[nH]c1=O (centres undefined),inactive: > 100 µM
23,CC(=O)OCCC[C@@H]1C(=C(C)C)CCC2[C@@]1(C)CC[C@@]1(C)C[C@](C)(CCC=C(C)C)CC[C@]21C (some centres undefined),inactive: > 100 µM

row,SMILES,GI50
1,COc1ccc(C2C(C(=O)O)=C(CO)Oc3cc4c(cc32)OCO4)c(OC)c1 (centres undefined),inactive: > 100 µM
2,N#CCN1CCOCCOCCN(CC#N)CCOCCOCC1,inactive: > 100 µM
3,COc1ccc(/C=C2\CN(C)C/C(=C\c3ccc(OC)c(OC)c3OC)C2=O)c(OC)c1OC,active: 0.183 µM
4,NCCCCc1cc(O)c2c(c1O)C(=O)c1ccccc1C2=O,inactive: 6.12 µM
5,O=C1CN(/N=C/c2ccc(-c3ccc(F)cc3)o2)C(=O)N1,inactive: > 100 µM
6,CN(C)c1ccc(/C=C/c2nc3ccccc3s2)cc1,inactive: > 100 µM
7,CC[C@]1(O)C(=O)OCc2c1cc1n(c2=O)Cc2cc3c(N)cccc3nc2-1,inactive: > 100 µM
8,CCOc1ccc(NC(=O)C(=O)Nn2c(N)nnc2N)cc1,inactive: > 100 µM
9,CCOP(=O)(C/C(O)=C1\C(=O)C(CCCCNC(=O)OC(C)(C)C)N(Cc2ccccc2)C1=O)OCC (centres undefined),inactive: 34.8 µM
10,Cn1cc2ccccc2c1-c1nc(F)nc(Oc2ccc3c(c2)CC[C@@H]2C3CC[C@@]3(C)C2C[C@H](O)[C@@H]3O)n1 (some centres undefined),inactive: 20.3 µM
11,CN1N=C(Nc2ccccc2)Sc2c1cnn(-c1ccccc1)c2=O,inactive: > 100 µM
12,Clc1ccc(C(n2cc(Br)cn2)n2cc(Br)cn2)cc1,inactive: 15.4 µM
13,CCC(CCC(C)C1CCC2C3CC=C4CC(OC5OC(CO)C(O)C(O)C5O)CCC4(C)C3CCC12C)C(C)C (centres undefined),inactive: > 100 µM
14,C[N+](C)(C)CC(=O)NC(=O)N/N=C\C(CC#N)CN(Cc1ccccc1)Cc1ccccc1 (centres undefined),inactive: > 100 µM
15,CC(C)c1nccn1Cc1ccc(Cl)cc1Cl,inactive: 49.1 µM
16,CC(C)(CC1(C)NC(=O)NC1=O)OCc1ccccc1 (centres undefined),inactive: > 100 µM
17,CC12CCC(C1)C(C)(C)C2OC(=O)c1ccccc1C(=O)O (centres undefined),inactive: > 100 µM
18,O=C(CSc1nc2ccc(I)cc2c(=O)n1Cc1ccccc1)NN1C(=O)c2ccccc2C1=O,inactive: 15.7 µM
19,O=[N+]([O-])c1ccc2c3c1[C@H]1O[C@H]1c1cccc(c1-3)[C@@H]1O[C@H]21,inactive: 6.22 µM
20,CCCC(=O)Oc1c2ccsc2c(OC(=O)CCC)c2ccsc12,inactive: 4.09 µM
21,OCC1OC(n2cnc3c2NC=NC[C@H]3O)C(O)C1O (some centres undefined),inactive: 379 µM
22,C/C(=N\NS(=O)(=O)c1ccccc1)c1ccccc1,inactive: > 100 µM
23,C#CCOCCCC(=O)O,inactive: > 100 µM

row,SMILES,GI50
1,CC(C)OC(=O)/C=C/C(=O)O/C=C/[N+](=O)[O-],inactive: > 100 µM
2,CCCCCCCCCCCCCCCC(=O)OCC1OC(n2ccc(N)nc2=O)C(O)C1O (centres undefined),inactive: 7.66 µM
3,C/C(=N/Nc1ccc([N+](=O)[O-])cc1[N+](=O)[O-])C(CC(C(=O)Nc1ccccc1C)/C(C)=N\Nc1ccc([N+](=O)[O-])cc1[N+](=O)[O-])C(=O)Nc1ccccc1C (centres undefined),inactive: 14.8 µM
4,COc1ccc2c3c1O[C@H]1C[C@@H](O)C=C[C@@]31CCN(C)C2 [GALANTAMINE],inactive: > 80.9 µM
5,C/C(CC(=O)CCCC(=O)Nc1ccc(Cl)cc1Cl)=N/NC(=O)CC#N,inactive: > 100 µM
6,O=C(O)[C@H]1[C@@H](C2CCCCC2)O[C@@H](C2CCCCC2)O[C@H]1C(F)(F)F,inactive: 24.8 µM
7,O=c1c(-c2ccccc2)nnc2n(Cc3ccccc3)c3ccccc3n12,inactive: > 100 µM
8,CCOC(=O)C1C(c2ccc([N+](=O)[O-])cc2)NC(c2ccc([N+](=O)[O-])cc2)C(C(=O)OC)S1(=O)=O (centres undefined),inactive: > 100 µM
9,CC1=N/C(=C\c2ccc([N+](=O)[O-])cc2)C(=O)O1,inactive: > 100 µM
10,COc1cc(CCNC2=CC(=O)c3nc[nH]c3C2=O)ccc1O,inactive: 25.6 µM
11,C/C=N\n1c(C)c(C#N)c(C#N)c1N,inactive: > 100 µM
12,Cc1cc(Br)cc(C)c1NC(=O)C(=O)C1C(=O)C(CC2C(=O)c3ccccc3C2=O)C(=O)CC1(C)C (centres undefined),inactive: > 100 µM
13,CC[C@@]1(O)C(=O)OCc2c1cc1n(c2=O)Cc2cc3cc(OC)ccc3nc2-1,active: 0.129 µM
14,CSc1nc(NC2OC(COC(C)=O)C(OC(C)=O)C(OC(C)=O)C2OC(C)=O)c(/N=C/C=N/c2c(NC3OC(COC(C)=O)C(OC(C)=O)C(OC(C)=O)C3OC(C)=O)nc(SC)[nH]c2=O)c(=O)[nH]1 (centres undefined),inactive: > 100 µM
15,CC1(C)SCc2nc3ncccc3n21,inactive: > 100 µM
16,CN(C)C(=O)OCOC(=O)N(C)C,inactive: > 100 µM
17,N#CC1=C(N)N(c2ccccc2)C(c2ccco2)C1(C#N)C#N (centres undefined),inactive: 19.5 µM
18,CC(C)(OCc1ccccc1)c1ccccc1P(c1ccccc1)c1ccccc1,inactive: 48.9 µM
19,S=C1NCCN1C(=S)Nc1ccccc1,inactive: > 100 µM
20,O=C1N/C(=N/N=C\C(O)C(O)C(O)CO)N/C1=C/c1ccc(Cl)cc1 (centres undefined),inactive: 68.1 µM and inactive: 65 µM
21,Cc1cc(S(=O)(=O)NC2=NCc3nc4ccccc4n32)c(S)cc1Cl,inactive: 35.8 µM
22,COC(=O)C1CCC(=O)N1C(c1ccc2c(c1)OCO2)c1ccc2c(c1)OCO2 (centres undefined),inactive: > 100 µM
23,CCOC(=O)N1c2ccccc2C(C)=CC(C)C1C (centres undefined),inactive: 21.3 µM

row,SMILES,GI50
1,C[C@]12CCNC(=O)C=C1CC[C@@H]1C2CC[C@@]2(C)C1CC[C@@H]2OC(=O)COc1ccc(N(CCCl)CCCl)cc1 (some centres undefined),inactive: 17 µM
2,COc1ccc(\N=C/C=C/C(=C/COC(C)=O)OC(C)=O)cc1,inactive: 57.8 µM
3,CC1OC(=O)C(O)=C1O (centres undefined),inactive: > 100 µM
4,Cc1cc(S(=O)(=O)NC(=C(C#N)C#N)[n+]2ccc(N(C)C)cc2)c([S-])cc1Cl,inactive: > 100 µM
5,CSc1nnc(SC)nn1,inactive: > 100 µM
6,O=C(OCC(Cl)(Cl)Cl)N1CC[C@@H](C2CCCCC2)C1,inactive: 36.1 µM
7,CO[C@H]1[C@@H](O)[C@H](O[C@@H]2C[C@H]3CC[C@@H]4[C@H](CC[C@]5(C)[C@@H](C6=CC(=O)OC6)CC[C@]45O)[C@@]3(C)[C@H](OC(C)=O)C2)O[C@@H](C)[C@H]1O,inactive: 1.87 µM
8,CN(C)C(=O)Oc1c(Br)cc(Br)cc1C(=O)OCc1ccccc1,inactive: 35.8 µM
9,CCOC(=O)C(NC(=O)CC(C)C)(N1CCN(c2cc3c(cc2F)c(=O)c(C(=O)O)cn3C2CC2)CC1)C(F)(F)F (centres undefined),inactive: 34.8 µM
10,c1ccc(CSSSCc2ccccc2)cc1 [DIBENZYL TRISULFIDE],inactive: 7.93 µM
11,N#Cc1ccc(/C=N\N2C(=O)c3ccccc3C2=O)cc1,inactive: > 100 µM
12,CN(C)Cc1c(O)ccc2c1c1c(n2C)C(=O)c2ccccc2C1=O,inactive: 8.93 µM
13,COc1ccc(C2CC(c3sc(Nc4ccc(C)cc4)nc3C)=NN2)cc1 (centres undefined),inactive: 21.3 µM
14,CCn1cc(C(=O)O)c(=O)c2cc(F)c(N3CCN(CN4C(=O)/C(=N\c5ncc(Cc6cc(OC)c(OC)c(OC)c6)c(N)n5)c5cc(Cl)ccc54)CC3)cc21,inactive: > 100 µM
15,O=[N+]([O-])c1cccc(S(=O)(=O)N/N=C/c2cc(I)cc([N+](=O)[O-])c2O)c1,inactive: 28.5 µM
16,COc1cc(-c2cc(=O)c3c(O)c(CC=C(C)C)c(O)cc3o2)ccc1O,inactive: 40.7 µM
17,COC(=O)c1cc2c(o1)Sc1ccccc1NC2=O,inactive: > 100 µM
18,COc1cc2c(cc1OCCCCOc1cc3c(cc1OC)C(=O)N1CCC[C@H]1C(=O)N3)N=C[C@@H]1CCCN1C2=O,inactive: 16 µM
19,Clc1cc(Cl)nc(Nc2ccc3c(c2)CCC3)n1,inactive: 25.9 µM
20,C[C@@H]1OC(=O)N2CCCC(=C3SCCCS3)C12 (some centres undefined),inactive: 68.2 µM

# Values joined by “and” are separate entries in the source; they are usually repeats but may differ in a detail not shown here. Equal entries are not always repeated.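 Cells were grown in 96-well plates and exposed to each compound for 48 hours at five concentrations; endpoints were interpolated linearly between bracketing concentrations, or set to the highest concentration if not reached. Abbreviation: GI50, concentration required for 50% inhibition of growth.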 Active and inactive are the calls of the source. Cut-off read from the data, not from the text of the source: active = GI50 up to about 1.1 µM and inactive = higher.
